# How the values were obtained:
# [1] = system: patients with moderate to severe L-DOPA-induced dyskinesia (LID) in Parkinson's disease; parameters: species or system human; details: in vivo
# Method: Blood pressure (systolic and diastolic) and pulse would be measured in sitting position after at least 5 minutes of rest and then again 3 minutes after standing upright to determine whether the patient has orthostatic hypotension (decrease in systolic blood pressure of at least 20 mm Hg or diastolic blood pressure of at least 10 mm Hg within 3 minutes of the patient standing up, compared to the blood pressure obtained while in the sitting position). At screening and baseline (Visit 1 and Visit 2), the investigator should collect 3 assessments, each taken 15 to 20 minutes apart, in order to obtain an average value. All measurements and the calculated average value should be recorded in the eCRF. At other visits, one assessment is sufficient. Respiratory rate would be assessed by routine methods. Body temperature would be measured orally using a digital thermometer. Any vital signs outside the normal ranges at each site would be judged as NCS or CS. The assessment would be recorded in the eCRF. Post-dose vital signs judged as “abnormal, clinically significant” by the Investigator would be reported as AEs. Vital signs (systolic/diastolic blood pressure, orthostatic blood pressure, pulse, respiratory rate and body temperature) would be summarized by treatment. Data would be presented with absolute and percent change from baseline.
# [2] = system: patients with moderate to severe L-DOPA-induced dyskinesia (LID) in Parkinson's disease; experiment: Patient highest titration dose, Phase 2a study; format: in vivo, human; details: NLX-112 (n = 15)
# Method: • Days 1-4 (0.25 mg/day): 1 tablet in the morning, none in the evening • Days 5-8 (0.5 mg/day): 1 tablet in the morning and 1 tablet in the evening • Days 9-12 (0.75 mg/day): 2 tablets in the morning, 1 tablet in the evening • Days 13-16 (1.0 mg/day): 2 tablets in the morning, 2 tablets in the evening • Days 17-20 (1.25 mg/day): 3 tablets in the morning, 2 tablets in the evening • Days 21-24 (1.5 mg/day): 3 tablets in the morning, 3 tablets in the evening • Days 25-28 (1.75 mg/day): 4 tablets in the morning, 3 tablets in the evening
# • Days 29-42 (2 mg/day): 4 tablets in the morning, 4 tablets in the evening Down-Titration Period (2 Weeks, Down-Titration by 0.25 mg/Day Every 2 Days): • Days 43-44 (start of down-titration period [1.75 mg/day]) • Days 45-46 (1.5 mg/day) • Days 47-48 (1.25 mg/day) • Days 49-50 (1 mg/day) • Days 51-52 (0.75 mg/day) • Days 53-54 (0.5 mg/day) • Days 55-56 (0.25 mg/day)
# Patients in the placebo arm followed the same dose escalation, constant dose and down-titration schedule, but would be taking the matching placebo tablets. Patients who have intolerable adverse events (AEs) during the 28-day up-titration period would be allowed to return to the previous tolerated dose at the discretion of the Investigator, or they may withdraw from the study if they so choose. A slow down-titration was used to reduce potential withdrawal symptoms.
# Four patients dropped-out during the up-titration period, 3 on NLX-112 (all due to withdrawal of consent) and 1 on placebo (due to deep brain stimulation operation). All drop-outs were included in the Full Analysis Set (FAS) but were excluded from the Per Protocol Set (PPS). One additional placebo-patient was excluded from the PPS because of a protocol violation (use of gabapentin, prohibited medication) prior to unblinding. Evaluation of safety and tolerability was based on the FAS (N=27) while efficacy evaluation was based on the PPS (N=22).
# [3] = system: L-DOPA-induced dyskinesia (LID) in Parkinson's disease patients; experiment: Unified Dyskinesia Rating Scale (UDysRS) after 150% L-DOPA challenge, Phase 2a study; details: for UDysRS Part 3 + 4, Baseline / UDysRS Part 3 + 4, Δ / UDysRS Total, Baseline / UDysRS Total, Δ: on NLX-112
# [4] = Day 28, mean (SD), per-protocol set n = 15
# [5] = Patient A, amantadine treatment 1 year
# [6] = Patient B, amantadine treatment 2 years
# [7] = Patient C, amantadine treatment 7 years
# [8] = Patient D, amantadine treatment 11 years
# [9] = Patient E, amantadine treatment 6 years
# [10] = Visit 2 Baseline, Per protocol analysis set, n 15
# [11] = Visit 6 Clinic Efficacy Visit (Day 28), Full analysis set, n 15
# [12] = Visit 6 Clinic Efficacy Visit (Day 28), Per protocol analysis set, n 15
# [13] = Visit 7 Clinic Efficacy Visit (Day 42), Full analysis set, n 15
# [14] = Visit 7 Clinic Efficacy Visit (Day 42), Per protocol analysis set, n 15
smiles,measurement,setting,value
Cc1ccc(CNCC2(F)CCN(C(=O)c3ccc(F)c(Cl)c3)CC2)nc1 [NLX-112],Patients with abnormal vital signs assessed as clinically significant,"[1]; human, 8 weeks",2 patients
same,Patients with abnormal vital signs assessed as not clinically significant,"[1]; human, 8 weeks",12 (67%) n (%)
same,Patients with occurrences of orthostatic hypotension,"[1]; human, 8 weeks",13 out of 18
same,"Vital signs, changes",[1],"no changes in HR, BP, body temperature"
same,"Patients with highest titration dose 1.0 mg, %",[2],6.7%
same,"Patients with highest titration dose 1.75 mg, %",[2],13.3%
same,"Patients with highest titration dose 2.0 mg, %",[2],80%
same,"UDysRS Part 3 sum of items, highest score of assessment sessions, change from baseline",[3]; [4],significant reduction
same,"UDysRS Parts 3 + 4, highest score of assessment sessions, change from baseline",[3]; [4],−1.7 (4.3) points
same,"NLX-112 group versus placebo group, change from baseline in UDysRS total score or total objective (Parts 3 and 4) score",[3]; Day 28 or Day 42,no significant differences
same,"UDysRS Part 3 + 4, Baseline",[3]; [5],11
same,"UDysRS Part 3 + 4, Δ",[3]; [5],−6
same,"UDysRS Total, Baseline",[3]; [5],18
same,"UDysRS Total, Δ",[3]; [5],−6
same,"UDysRS Part 3 + 4, Baseline",[3]; [6],22
same,"UDysRS Part 3 + 4, Δ",[3]; [6],+3
same,"UDysRS Total, Baseline",[3]; [6],43
same,"UDysRS Total, Δ",[3]; [6],−2
same,"UDysRS Part 3 + 4, Baseline",[3]; [7],29
same,"UDysRS Part 3 + 4, Δ",[3]; [7],+2
same,"UDysRS Total, Baseline",[3]; [7],44
same,"UDysRS Total, Δ",[3]; [7],+7
same,"UDysRS Part 3 + 4, Baseline",[3]; [8],28
same,"UDysRS Part 3 + 4, Δ",[3]; [8],−11
same,"UDysRS Total, Baseline",[3]; [8],39
same,"UDysRS Total, Δ",[3]; [8],−11
same,"UDysRS Part 3 + 4, Baseline",[3]; [9],17
same,"UDysRS Part 3 + 4, Δ",[3]; [9],−6
same,"UDysRS Total, Baseline",[3]; [9],31
same,"UDysRS Total, Δ",[3]; [9],−8
same,"UDysRS Parts 1, 2, 3, and 4 most severe, Collected value, Median (Min, Max)","[3]; Visit 2 Baseline, Full analysis set, n 18","31.0 (13, 47)"
same,"UDysRS Parts 1, 2, 3, and 4 most severe, Collected value, Median (Min, Max)",[3]; [10],"31.0 (13, 47)"
same,"UDysRS Parts 3 and 4 average, Collected value, Median (Min, Max)",[3]; [10],"13.00 (3.7, 27.0)"
same,"UDysRS Parts 3 and 4 most severe, Collected value, Median (Min, Max)",[3]; [10],"14.0 (6, 29)"
same,"UDysRS Parts 1, 2, 3, and 4 average, Absolute change from baseline, Median (Min, Max)",[3]; [11],"−3.00 (−21.0, 7.3)"
same,"UDysRS Parts 1, 2, 3, and 4 most severe, Absolute change from baseline, Mean (SD)",[3]; [11],−4.1 (9.3)
same,"UDysRS Parts 1, 2, 3, and 4 most severe, Absolute change from baseline, Median (Min, Max)",[3]; [11],"−2.0 (−21, 11)"
same,"UDysRS Parts 1, 2, 3, and 4 most severe, Collected value, Median (Min, Max)",[3]; [11],"28.0 (14, 55)"
same,"UDysRS Parts 3 and 4 average, Relative change from baseline (%), Median (Min, Max)",[3]; [11],"−20.0 (−88, 64) %"
same,"UDysRS Parts 3 and 4 most severe, Absolute change from baseline, Mean (SD)",[3]; [11],−1.7 (4.3)
same,"UDysRS Parts 3 and 4 most severe, Absolute change from baseline, Median (Min, Max)",[3]; [11],"−1.0 (−10, 7)"
same,"UDysRS Parts 3 and 4 most severe, Collected value, Median (Min, Max)",[3]; [11],"12.0 (2, 36)"
same,"UDysRS Parts 1, 2, 3, and 4 average, Absolute change from baseline, Median (Min, Max)",[3]; [12],"−3.00 (−21.0, 7.3)"
same,"UDysRS Parts 1, 2, 3, and 4 most severe, Absolute change from baseline, Mean (SD)",[3]; [12],−4.1 (9.3)
same,"UDysRS Parts 1, 2, 3, and 4 most severe, Absolute change from baseline, Median (Min, Max)",[3]; [12],"−2.0 (−21, 11)"
same,"UDysRS Parts 1, 2, 3, and 4 most severe, Collected value, Median (Min, Max)",[3]; [12],"28.0 (14, 55)"
same,"UDysRS Parts 3 and 4 average, Relative change from baseline (%), Median (Min, Max)",[3]; [12],"−20.0 (−88, 64) %"
same,"UDysRS Parts 3 and 4 most severe, Absolute change from baseline, Mean (SD)",[3]; [12],−1.7 (4.3)
same,"UDysRS Parts 3 and 4 most severe, Absolute change from baseline, Median (Min, Max)",[3]; [12],"−1.0 (−10, 7)"
same,"UDysRS Parts 3 and 4 most severe, Collected value, Median (Min, Max)",[3]; [12],"12.0 (2, 36)"
same,"UDysRS Parts 1, 2, 3, and 4 most severe, Absolute change from baseline, Mean (SD)",[3]; [13],−6.3 (7.0)
same,"UDysRS Parts 1, 2, 3, and 4 most severe, Absolute change from baseline, Median (Min, Max)",[3]; [13],"−8.0 (−19, 7)"
same,"UDysRS Parts 1, 2, 3, and 4 most severe, Collected value, Median (Min, Max)",[3]; [13],"24.0 (11, 51)"
same,"UDysRS Parts 1, 2, 3, and 4 most severe, Relative change from baseline (%), Mean (SD)",[3]; [13],−19.0 (22.6) %
same,"UDysRS Parts 3 and 4 most severe, Absolute change from baseline, Mean (SD)",[3]; [13],−3.1 (4.2)
same,"UDysRS Parts 3 and 4 most severe, Absolute change from baseline, Median (Min, Max)",[3]; [13],"−4.0 (−11, 3)"
same,"UDysRS Parts 3 and 4 most severe, Collected value, Median (Min, Max)",[3]; [13],"11.0 (5, 31)"
same,"UDysRS Parts 3 and 4 most severe, Relative change from baseline (%), Mean (SD)",[3]; [13],−21.0 (24.5) %
same,"UDysRS Parts 1, 2, 3, and 4 average, Collected value, Median (Min, Max)",[3]; [14],"23.00 (10.3, 47.7)"
same,"UDysRS Parts 1, 2, 3, and 4 most severe, Absolute change from baseline, Mean (SD)",[3]; [14],−6.3 (7.0)
same,"UDysRS Parts 1, 2, 3, and 4 most severe, Absolute change from baseline, Median (Min, Max)",[3]; [14],"−8.0 (−19, 7)"
same,"UDysRS Parts 1, 2, 3, and 4 most severe, Collected value, Median (Min, Max)",[3]; [14],"24.0 (11, 51)"
same,"UDysRS Parts 1, 2, 3, and 4 most severe, Relative change from baseline (%), Mean (SD)",[3]; [14],−19.0 (22.6) %
same,"UDysRS Parts 3 and 4 most severe, Absolute change from baseline, Mean (SD)",[3]; [14],−3.1 (4.2)
same,"UDysRS Parts 3 and 4 most severe, Absolute change from baseline, Median (Min, Max)",[3]; [14],"−4.0 (−11, 3)"
same,"UDysRS Parts 3 and 4 most severe, Collected value, Median (Min, Max)",[3]; [14],"11.0 (5, 31)"
same,"UDysRS Parts 3 and 4 most severe, Relative change from baseline (%), Mean (SD)",[3]; [14],−21.0 (24.5) %
same,Effect on LID,[3]; apparently treatment-duration dependent,significantly reduced LID
same,"UDysRS Part 3 sum of items, average of 3 assessments, NLX-112 group versus placebo group",[3]; day 28 and day 42,significantly greater change from baseline

# — US20260263442A1, “METHOD FOR TREATING L-DOPA-INDUCED DYSKINESIA USING BEFIRADOL” (Neurolixis, Inc., priority 2023, published 2026)
